# Results: ChEMBL document CHEMBL4888484, “Replenishing the malaria drug discovery pipeline: Screening and hit evaluation of the MMV Hit Generation Library 1 (HGL1) against asexual blood stage Plasmodium falciparum ,using a nano luciferase reporter read-out” (2022)
# Among all 150,000 compounds or so, about 540 (0.36%) showed an effect of 50% or more. Some of the results follow.
# System: Plasmodium falciparum
# Experiment: Primary screen in NF54 nanoGlo assay, in single point, at 2uM, 72h; a lower Z score goes with more inhibition
# Assay type: functional, Erythrocyte
# Settings: timepoint 72 hour
SMILES,% Inhibition,Z score
COC(=O)n1ccc(C(=O)Nc2ccc(C)cc2C)n1,-1%,0.23
COc1ccc2[nH]nc(CN3CCCC[C@@H]3CCc3nccn3C)c2c1,3%,-0.45
CCn1cc(CN(C)C(=O)c2nc3n(n2)CCCN3)cn1,-1%,0.12
Cc1ccccc1-c1nnc(N2CCC(N3CCCS3(=O)=O)CC2)n1C,-17%,2.48
CCCN1CCN(CCCNC(=O)CCCN2C(=O)CCn3nc(-c4cccn4C)cc32)CC1,-8%,1.58
CC(C(=O)O)C(NC(=O)c1cscn1)c1ccccc1 (stereo not drawn),-4%,0.37
CC(C)CCNC(=O)c1ccc(N2CCCc3ccccc32)s1,-4%,0.74
O=C(NC1CC(O)C(CO)C1)C1CCCC1 (stereo not drawn),-12%,1.83
CC(=O)Nc1cc(C)c(S(=O)(=O)Nc2nccn2-c2ccccc2)cc1Br,-2%,0.35
CO[C@@]1(CNc2nc3cccc(F)c3o2)CCS(=O)(=O)C1,4%,-0.81
COc1ccc([C@H]2CCc3nc(C(=O)N4CCN(c5ccccc5OC)CC4)cn3C2)c(OC)c1,0%,0.06
C[C@H](C(=O)Nc1ccncc1F)C1CCOCC1,-7%,1.3
Cc1cc(C)c(C#N)c(NC[C@H]2CN(C)CCN2C)n1,-9%,0.88
CNc1ccnc(NCCCOC2CCCC2)n1,3%,-0.4
CNc1nc(N2CC[C@@](O)(C3CCOCC3)[C@H](C)C2)ncc1F,7%,-1.16
NC(=O)c1cc2c(nc1-c1ccc(C(=O)N3CCOCC3)cc1)CCC2,1%,-0.24
CCOC(=O)c1cnn(Cc2csc(-c3ccccn3)n2)c1C#N,-9%,1.72
CCn1nccc1S(=O)(=O)NCC1(C(C)C)CC1,10%,-1.37
CC(CC(O)c1cccs1)NCc1nccn1C (stereo not drawn),14%,-1.68
CCC[C@H](O)CN(Cc1ccc2c(c1)OCO2)Cc1ccc(C)o1,-9%,1.3
O=C(Cc1ccc(Cl)cc1)Oc1ccccc1N1C(=O)C2CCCCC2C1=O (stereo not drawn),2%,-0.25
CC(C)(NC(=O)c1ccnc(C2CC2)c1)c1nccs1,-8%,1.7
O=C(COc1ccc(-n2cccn2)nn1)NCc1nccc(N2CCCCC2)n1,-12%,2.23
CCc1c(C(=O)N2C[C@@H](C)[C@](C)(C(=O)O)C2)cnn1CC(C)C,2%,-0.38
